Drawing on PubChem BioAssay AID485344 (National Center for Advancing Translational Sciences (NCATS), 2010), this text covers inhibition for 94 molecules.

Screen size: about 340,000 compounds; about 6,900 (2%) were called active. Rule as the data show it: active = inhibition above about 30%; inactive = below that, where a call was filed. Only a part is listed here, and it is no random draw. Where no call is shown, the source filed none.

As usually defined, the inhibition is the drop in the measured response relative to a control, in per cent.

Sequence of UniProt P14416 (P14416 whole entry, looked up): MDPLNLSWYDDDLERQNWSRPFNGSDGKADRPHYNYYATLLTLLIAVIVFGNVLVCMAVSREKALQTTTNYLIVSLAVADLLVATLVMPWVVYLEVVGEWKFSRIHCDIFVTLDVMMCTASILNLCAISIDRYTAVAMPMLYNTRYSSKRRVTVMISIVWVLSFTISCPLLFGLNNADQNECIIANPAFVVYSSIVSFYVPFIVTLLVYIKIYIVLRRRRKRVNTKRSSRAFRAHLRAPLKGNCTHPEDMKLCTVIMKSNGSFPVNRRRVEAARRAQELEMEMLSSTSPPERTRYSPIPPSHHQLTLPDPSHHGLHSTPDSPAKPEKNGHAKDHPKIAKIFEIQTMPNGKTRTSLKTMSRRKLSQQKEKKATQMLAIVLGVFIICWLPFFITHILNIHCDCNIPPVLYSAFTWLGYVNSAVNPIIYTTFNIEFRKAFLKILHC

The target of the assay is D(2) dopamine receptor (Homo sapiens) (UniProt P14416). Briefly: HTS Assay for Allosteric Antagonists of the Human D2 Dopamine Receptor: Primary Screen for Antagonists. Also: 0% is about no effect. The settings on record: HEK293 TREx D2 cells, calcium flux, dopamine EC80; at 10 µM; stronger effect = higher value. The method in brief:
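HEK293 T-REx D2 cells, tet-induced, calcium dye no-wash. Cpd pintool add, 180 s kinetic, then EC80 DA, 180 s kinetic. Ca flux read.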
In general terms: Calcium assays in cells follow changes in intracellular calcium, usually with a dye or a luminescent sensor.
With `CCc1nnc(NC(=O)c2nc(SC)ncc2Cl)s1`, the inhibition turned out to be 14.7%.
The figure for `Cc1ccccc1C(=O)Nc1c(C(=O)Nc2cccc(F)c2)oc2ccccc12` is -0.833%; for `O=C(NCc1ccc2c(c1)OCO2)c1ccc2c(c1)N(Cc1ccccc1F)C(=O)c1ccccc1S2=O` (centres undefined) it is 7.78%.
The figure for `CCOC(=O)c1c(-c2ccccc2)oc2ccc(N(C(C)=O)S(=O)(=O)c3ccccc3)cc12` is 2.62%.
Under `COc1cccc(-n2c(SCC(=O)NCc3ccco3)nnc2-c2c[nH]c3ccccc23)c1` stands active: 48.4%; under `CCc1ccccc1NC(=O)CSc1nnc(-c2ccccc2)c(-c2ccccc2)n1`, -8.24%.
Consider `O=C(CN(c1ccc(Cl)c(C(F)(F)F)c1)S(=O)(=O)c1ccccc1)Nc1cccnc1`, for which the inhibition was -3.81%.
For the molecule `O=C(NCCCN1CCCCC1)c1ccc(CS(=O)c2ccc(F)cc2)o1` (centres undefined), the inhibition is active: 31.8%.
Under `CCC1Oc2nc(SC)nnc2-c2ccccc2N1C(=O)c1ccccc1` (centres undefined) stands active: 34%.
The figure for `COc1cc(OC)cc(-c2cc3nc(C)c(CCC(=O)Nc4ccccc4OC)c(C)n3n2)c1` is 1.21%.
The figure for `Cc1cc(=O)n(CC(=O)NC(C)c2ccccc2)c2c1c(C)nn2-c1cccc(F)c1` (centres undefined) is -3.17%.
With `CC(NC(=O)c1ccco1)c1nc(-c2ccccc2)no1` (centres undefined), the inhibition was -8.38%.
As for `CCN1C(=O)c2ccccc2S(=O)(=O)c2ccc(C(=O)NCc3ccc(OC)cc3)cc21`, the inhibition is -28.2%.
Under `O=C(CN1CCc2ccccc2C1)Nc1ccccc1F` stands active: 64.5%.
Under `CCN(CC)CCNC(=O)c1cn(CC)c2ccc(S(=O)(=O)N(C)C3CCCCC3)cc2c1=O` stands -16.9%; under `Cn1c(C(=O)N2CCC(C(=O)NCCc3ccccc3)CC2)cc2sccc21`, 2.81%; under `CCC(C(=O)NC1CCCCC1)n1c(SCc2cccc(C)c2)nc2ccncc21` (centres undefined), -8.92%.
The figure for `CN1CCC(N(C)C(=O)COc2ccccc2Cl)CC1` is active: 31.1%.
As to `COCc1c(Br)c(C)nc2sc3c(=O)n(-c4cccc(Br)c4)nnc3c12`, the inhibition came to 6.35%.
Under `N#Cc1ccccc1CSc1nnc2ccc3ccccc3n12` stands -21.4%.
Under `Cc1coc2cc3oc(=O)c(CCC(=O)NCc4ccccc4Cl)c(C)c3cc12` stands 12.7%; under `CCCN1CCN(CCCNC(=O)C(CC)n2nc(C)n3c(cc4occc43)c2=O)CC1` (centres undefined), -12.1%; under `COc1cccc(NC(=O)c2cc3c(-c4ccc(Cl)cc4)nn(C)c3s2)c1`, -4.12%.
The figure for `O=C(NCC(c1cccnc1)N1CCN(Cc2ccccc2)CC1)C(=O)Nc1cccc(Cl)c1` (centres undefined) is -2.11%; for `O=C(O)c1cccc(-n2cnc3cccnc32)c1` it is -0.475%.
Regarding `COC(=O)c1cc(NC(=O)c2sc3ccccc3c2Cl)cc(C(=O)OC)c1`, the inhibition was -1.3%.
The figure for `Cc1cccc(N2CCN(c3ncnc4c3nc3n4CCCCC3)CC2C)c1` (centres undefined) is 9.24%; for `CCOc1ccc(-c2nc(CSCC(=O)NCc3ccc(C)cc3)c(C)o2)cc1` it is 18.5%; for `COC(=O)c1cc2occc2n1CC(=O)Nc1ccc(C)cc1Cl` it is -0.852%.
The figure for `COc1ccc(-c2nn(-c3ccc(C)cc3)c3c2cnc2ccc(C)cc23)cc1OC` is 14.2%; for `COC(=O)c1c(C)oc2ccc(N(C(=O)c3ccncc3)S(=O)(=O)c3cc(C)ccc3C)cc12` it is 14.2%.
Under `Cc1ccc(C(=O)Nc2ccccc2)cc1S(=O)(=O)Nc1ccccc1` stands 1.46%; under `N#Cc1c(F)cccc1N1CCN(Cc2ccc3c(c2)OCO3)CC1`, active: 85.4%.
As to `Cc1ccc(-n2ncc3c(N4CCC(Cc5ccccc5)CC4)ncnc32)cc1C`, the inhibition was found to be 18.5%.
Under `Cc1ccc(OC(=O)CSc2nnc(-c3ccc4c(c3)OCO4)o2)cc1` stands -5.07%; under `COc1ccc(-n2c(Cc3cc(=O)[nH]c(=O)[nH]3)nnc2SCC(=O)Nc2cc(C(F)(F)F)ccc2Cl)cc1`, active: 40.8%; under `COc1ccc(N2CCN(C(=O)C3CCN(S(=O)(=O)c4cn(C)cn4)CC3)CC2)cc1`, 15.1%.
Turning to `Cc1cccc(NC(=O)CCNS(=O)(=O)c2ccc3c(c2)CCN3C(=O)C2CC2)c1`, the inhibition was 8.86%.
For the molecule `Cc1ccc(NC(=O)Cn2cc(C(=O)C3CCCCC3)c3ccccc32)cc1`, the inhibition was -13.1%.
Under `CCOc1ccc(-c2cc(CCCC(=O)NCCc3cc(OC)c(OC)c(OC)c3)no2)cc1` stands 1.02%; under `CCOC(=O)C1CCN(C(c2ccc(C)cc2)c2c(O)cc(C)n(CCOC)c2=O)CC1` (centres undefined), -9.31%; under `CCOc1ccc(NC(=O)Cn2c(=O)n(CCCS(=O)(=O)C3CCCCC3)c(=O)c3ccccc32)cc1`, -3.25%.
On to `COc1ccc(CCNC(=O)CCCn2nc(C)c3sc4ccccc4c3c2=O)c(OC)c1`, for which the inhibition stood at 10.7%.
Under `Cc1ccccc1NC(=O)CSc1nc(-c2ccco2)nc2cc(=O)[nH]n12` stands -7.16%; under `Cc1ccc(NC(=O)C2CCN(c3nc(-c4ccc(C(C)C)cc4)no3)CC2)c(Cl)c1`, -23.4%.
The figure for `Cc1ccc(C(=O)Oc2cc(-c3ccc4c(c3)OCO4)cc(=O)c3c(C)oc(C)c23)cc1` is 12.1%; for `Cc1ccc(C(=O)NC2(C(F)(F)F)N=C(c3ccccc3)N(Cc3ccccc3)C2=O)cc1` (centres undefined) it is -6.62%; for `CC(=O)c1ccc(NS(=O)(=O)c2ccc(-n3cccn3)cc2)cc1` it is 3.97%.
Under `Cc1ccc2c(CNCc3ccc(C)o3)c(C(=O)O)n(Cc3ccc(F)cc3)c2c1` stands 1.03%.
On to `CCOc1ccc(CNC(=O)c2cc(-c3ccc(Cl)s3)nc3ccccc23)cc1`, for which the inhibition was found to be 12.3%.
Under `COc1ccc(C(=O)Oc2c(Sc3ccc(C)cc3)c(C)nn2C(C)(C)C)cc1OC` stands 12.9%.
The figure for `COc1ccccc1NC(=O)Cn1c(=O)n(CC(=O)NCc2ccccc2Cl)c(=O)c2sccc21` is 2.63%.
Under `O=C(c1ccc2c(c1)N(Cc1ccc(Cl)cc1)C(=O)c1ccccc1S2=O)N1CCCCC1` (centres undefined) stands 0.0264%; under `CC1(c2ccc(Cl)cc2)CC(C)(C)N(C(=O)c2cccc(F)c2)c2ccccc21` (centres undefined), -2.66%; under `COCCCn1c(-c2ccc(S(=O)(=O)N3CCOCC3)cc2)csc1=Nc1ccccc1`, -2.83%.
For the molecule `O=C(NCCN1CCCCC1)c1ccc(Cn2c(SCc3ccccc3)nc3cccnc32)cc1`, the inhibition worked out at 8.65%.
Under `COc1ccc(CNC(=O)c2cc3sccc3n2Cc2ccc(C)cc2)cc1` stands -13.9%; under `CN(CC1CCN(CCc2cccc(C(F)(F)F)c2)CC1)C(=O)c1ccc(F)cc1F`, active: 64.5%; under `O=C(Cc1ccccc1)Nc1sc2c(c1C(=O)Nc1ccc(Br)cc1)CCCC2`, -12.8%.
With `Cc1ccc(Cn2ccnc2SCC(=O)Nc2nnc(C)s2)cc1`, the inhibition is -11.6%.
Turning to `COc1ccc(OC)c(NC(=O)Nc2c(C)n(C)n(-c3ccccc3)c2=O)c1`, the inhibition turned out to be 11.7%.
For the molecule `O=C(O)c1ccc(-c2ccc(/C=c3/sc4nc5ccccc5n4c3=O)o2)cc1Cl`, the inhibition is active: 34.3%.
Under `Cc1ccc(-c2csc(=Nc3ccccc3)n2Cc2ccc3c(c2)OCO3)cc1` stands 4.81%; under `O=C(NC1CCN(Cc2ccccc2)CC1)c1ccc(Cn2c(=O)c3ccccc3n(Cc3ccc(F)cc3)c2=O)cc1`, 8.28%; under `Cc1cc(C)cc(Oc2nc3ccccn3c(=O)c2/C=C(\C#N)c2nc3ccccc3s2)c1`, 6.03%.
Turning to `COCCCNC(=O)CSc1nc2cc3c(cc2c(=O)n1CCCC(=O)NCc1ccc2c(c1)OCO2)OCO3`, the inhibition was -16.2%.
As for `Cc1ccccc1OCCSc1nc2ccc(NC(=O)c3cccs3)cc2s1`, the inhibition was determined as 19.1%.
Consider `Cn1c(=O)cc(SCC(=O)N2CCN(c3ccccc3F)CC2)c2ccc(Cl)cc21`, for which the inhibition is -9.59%.
The figure for `COc1ccccc1NC(=O)c1cc2c(C)nn(-c3ccccc3)c2s1` is 22.5%.
The figure for `Cc1ccc(C(=O)Nc2c(C)cc(-c3ccccc3)oc2=O)cc1` is active: 30.9%.
The figure for `COc1ccc(N2CCN(C(=O)COCc3cc(-c4ccc5c(c4)OCO5)on3)CC2)cc1` is 1.37%; for `COc1ccc(NC(=O)c2sc3nc(C(F)(F)F)cc(C)c3c2N)cc1OC` it is 20.1%.
Consider `Cc1ccc(NC(=O)c2nc(S(C)(=O)=O)ncc2N(Cc2ccco2)Cc2cccs2)cc1C`, for which the inhibition was found to be 4.83%.
Take `O=C1CC(=C2c3ccccc3-c3ccccc32)C(=O)N1CCCCN1CCN(c2ccccc2)CC1`: the inhibition was active: 43.9%.
As for `CCN(CC)S(=O)(=O)c1ccc2c(c1)nc(CN(C)C(=O)Nc1ccc(C)c(F)c1)n2C`, the inhibition stood at 2.06%.
The figure for `CCc1ccccc1NC(=O)CN1C(=O)CCSc2ccc(S(=O)(=O)N3CCCC3)cc21` is -4.49%; for `O=C(OCC1CCCO1)c1ccc2c(c1)N(Cc1ccccc1)C(=O)c1ccccc1S2(=O)=O` (centres undefined) it is -1.53%; for `CCOC(=O)NN1C(=O)c2ccccc2NC1c1ccccn1` (centres undefined) it is active: 37.7%.
Consider `CCc1ccccc1NC(=O)C(C)n1c(=O)cc(C)c2c(C)nn(-c3ccccc3)c21` (centres undefined), for which the inhibition was -20%.
The figure for `COC(=O)c1ccc(CSc2nc3c([nH]c4ccccc43)c(=O)n2-c2cccc(Cl)c2)o1` is -23.2%; for `CCOC(=O)C1CCCN(C(=O)Cn2ncc3c4ccccc4n(Cc4ccccc4)c3c2=O)C1` (centres undefined) it is 5.61%; for `O=C(Nc1ccc(F)cc1)C1CCN(S(=O)(=O)c2ccc3c(c2)CCCN3C(=O)C2CCC2)CC1` it is -6.11%.
The figure for `COc1ccc(N2CCN(CCCNC(=O)c3cc4sccc4n3C)CC2)cc1` is active: 40.3%; for `CCOC(=O)c1cc(-c2ccc(OC)cc2)n(CCC(=O)NC2CCCCC2)c1C` it is -1.05%.
For the molecule `CCOC(=O)c1c(S(=O)(=O)N2CCC(C(=O)Nc3ncccc3C)CC2)c(C)n(C)c1C`, the inhibition was -1.46%.
Under `COc1ccc2c(CNC3CCCCCC3)c(C(=O)O)n(Cc3ccccc3F)c2c1` stands -15.1%; under `Cc1c(C(=O)OC2CCCCC2)[nH]c2c1C(=O)CC(c1ccc(C(C)(C)C)cc1)C2` (centres undefined), 11.9%; under `CCC(=O)N1CCc2cc(Br)cc(S(=O)(=O)CCC(=O)N3CCN(c4cc(C)ccc4C)CC3)c21`, 3.34%.
The figure for `CCOC(=O)c1cnc2ccc(C)cc2c1Nc1ccc(N(CC)CC)cc1` is -3.17%.
Under `Fc1ccc(Nc2ncnc3c2nc2n3CCCCC2)c(F)c1` stands 5.34%; under `CCOc1ccc(-c2oc3ccc(C)cc3c(=O)c2O)cc1`, -2.61%.
For the molecule `COCCCNC(=O)c1ccc2c(c1)nc(C)n2-c1cccc(C)c1`, the inhibition turned out to be 25.9%.
As to `O=C(Nc1ccc(C(=O)OCc2cc(=O)n3nc(C4CC4)sc3n2)cc1)c1cccc(F)c1`, the inhibition turned out to be 18.4%.
The figure for `CCN(c1ccccc1)S(=O)(=O)c1ccc(NC(=O)c2cc(=O)c3ccccc3o2)cc1` is 0.957%.
